Test results: PubChem BioAssay AID1030 (National Center for Advancing Translational Sciences (NCATS), 2008)
Hit rate of the full screen: of about 220,000 compounds, about 16,000 (7.3%) were called active. Inconclusive means that the source gave no clear call. Such entries were picked first, then a sample of the others. The call rests on the fitted dose curve; in most records, active means well fitted inhibition curve with a large enough effect (not every such curve was filed as active); inconclusive means small, poorly fitted or top-dose-only effect, or another doubt; inactive means no such curve, though single readings can be large or run the other way. Potencies of inconclusive entries are left out as doubtful fits.

Molecular target: Aldehyde dehydrogenase 1A1 (Homo sapiens) (UniProt P00352)
Assay: qHTS Assay for Inhibitors of Aldehyde Dehydrogenase 1 (ALDH1A1);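 on activity, negative = inhibition: plate controls were no enzyme wells and a reference inhibitor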
Details: Purified ALDH1A1, NADH fluorescence, propionaldehyde substrate; series mostly up to 75.3 µM
Potency means the concentration at half of the fitted maximal effect; tags describe the fitted curve by direction and shape.

Sequence of UniProt P00352 (P00352 whole entry, looked up): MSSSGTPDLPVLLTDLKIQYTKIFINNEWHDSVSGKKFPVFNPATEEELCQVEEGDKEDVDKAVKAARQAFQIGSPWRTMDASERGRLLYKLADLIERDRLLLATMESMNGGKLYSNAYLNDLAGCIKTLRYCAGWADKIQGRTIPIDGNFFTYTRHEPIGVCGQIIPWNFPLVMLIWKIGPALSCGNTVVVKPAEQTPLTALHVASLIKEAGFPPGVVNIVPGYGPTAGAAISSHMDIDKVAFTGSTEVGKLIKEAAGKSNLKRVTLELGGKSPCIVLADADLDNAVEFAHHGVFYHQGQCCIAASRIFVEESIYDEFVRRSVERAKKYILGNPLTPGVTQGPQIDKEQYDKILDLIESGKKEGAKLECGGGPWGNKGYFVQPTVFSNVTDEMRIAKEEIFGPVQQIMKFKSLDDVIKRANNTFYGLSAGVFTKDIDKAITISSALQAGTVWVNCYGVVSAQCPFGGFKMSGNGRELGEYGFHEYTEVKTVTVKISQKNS

SMILES | activity, negative = inhibition | Potency
c1ccc2sc(SCN(C3CCCCC3)C3CCCCC3)nc2c1 | inactive: -19% [at 13.5 µM] | 
Cc1nnc(SCC(=O)Nc2ccc3c(c2)OCO3)[nH]c1=O |  | inactive
Nn1c(SCc2cn3ccccc3n2)nnc1-c1ccncc1 |  | inactive
Cc1cccc(OC(C)C(=O)N(Cc2cccs2)C2CCS(=O)(=O)C2)c1C (stereo not drawn) |  | inconclusive [inhibitor, single point]
CN(CCc1ccccn1)C(=S)Nc1ccc(Cl)cc1Cl |  | inactive
COC(=O)c1sc2nc(SCc3ccccc3C)n(N)c(=O)c2c1C |  | inconclusive [inhibitor, partial curve]
Cc1ccc(S(=O)(=O)N(C)C)cc1NC(=S)NC1CCCC(C)C1C (stereo not drawn) |  | inconclusive [inhibitor, single point]
O=C(CNC(=O)C1COc2ccccc2O1)N/N=C\c1cccc(O)c1 (stereo not drawn) |  | inactive
CCC(C)NC(=O)c1ccc(CS(=O)(=O)c2ccc(OC)cc2)o1 (stereo not drawn) |  | inconclusive [inhibitor, partial curve]
COc1ccc(C(C)=O)cc1COc1ccc([N+](=O)[O-])c(C)c1 |  | inconclusive [inhibitor, single point]
O=C(Nc1ccccc1)Nc1cc(S(=O)(=O)N2CCOCC2)ccc1N1CCCC1 |  | inconclusive [inhibitor, partial curve]
CCC(C)n1c(SCC(=O)Nc2ccccc2C(F)(F)F)nc2ccsc2c1=O (stereo not drawn) |  | inconclusive [inhibitor, single point]
O=C(O)c1n[nH]c2c1CCCCC2 |  | inactive
COC(=O)c1c(NC(=O)c2ccccc2[N+](=O)[O-])sc2c1CC(C)(C)NC2(C)C |  | inactive
CCOC(=O)c1[nH]c2ccc(Cl)cc2c1-c1ccccc1 |  | inconclusive [inhibitor, partial curve, poor fit]
N#Cc1c2c(c(=S)n(-c3ccccc3)c1N)CCCC2 |  | inconclusive [inhibitor, single point]
COc1ccc(Nc2nc(N)nc(CSC(=S)N3CCCCC3)n2)cc1 |  | inconclusive [inhibitor, single point]
O=C(Nc1ccc(Cl)cc1-c1nc2ccccc2s1)c1ccco1 |  | inactive
Cc1ccc2oc(=O)c3cc(C(=O)NCCN4CCN(C)CC4)sc3c2c1 |  | inconclusive [inhibitor, single point]
C/C(=N\NC(=O)c1c(Br)c(C)nn1C)c1ccc(NC(=O)c2ccoc2C)cc1 |  | inconclusive [inhibitor, single point]
COCCNc1nc(-c2ccccc2OC)nc2ccccc12 |  | inconclusive [inhibitor, single point]
N#Cc1cccc(-c2nccc(-n3ccnc3)n2)c1 |  | inconclusive [inhibitor, single point]

SMILES | activity, negative = inhibition | Potency
CCOC(=O)c1cc2occc2n1CCCN1C(=O)c2ccccc2C1=O |  | inconclusive [inhibitor, single point]
Cc1ccc(NC(=O)c2ccc(F)c(S(=O)(=O)N3CCOCC3)c2)cc1F |  | inconclusive [inhibitor, partial curve]
O=C(CSc1nc2ccccc2c(=O)[nH]1)c1ccccc1 |  | inconclusive [inhibitor, partial curve]
O=C(N/N=C\C=C\c1ccc2c(c1)OCO2)C1COc2ccccc2O1 (stereo not drawn) |  | inconclusive [inhibitor, single point]
Nc1nc(SCc2ccccc2Cl)nc2nc3c(cc12)CCCC3 |  | inconclusive [inhibitor, single point]
COc1ccc(N/C=C(/C(C)=O)c2ccccc2)cc1 |  | active: 10 µM
CCN(CC)S(=O)(=O)c1ccc(N2CCOCC2)c(NC(=O)c2ccccc2F)c1 |  | inconclusive [inhibitor, single point]
O=S(=O)(NC1c2cccc3cccc(c23)C1Sc1ncccn1)c1ccccc1 (stereo not drawn) |  | inconclusive [inhibitor, single point]
O=c1[nH]c(CSc2nnc(COc3ccccc3)n2-c2ccccc2)nc2ccccc12 |  | active: 17.8 µM
Cc1ccc(-n2c(-c3ccco3)nc3nc4ccccc4nc32)cc1 |  | inconclusive [inhibitor, partial curve]
CCN(CC)S(=O)(=O)c1ccc(N2CCOCC2)c(NC(=O)C23CC4CC(CC(Cl)(C4)C2)C3)c1 |  | inconclusive [inhibitor, partial curve]
O=C(COC(=O)c1c2c(nc3ccccc13)/C(=C\c1cccs1)CCC2)Nc1ccccc1Cl |  | inconclusive [inhibitor, single point]
CCOC(=O)c1nn(-c2cccc(Cl)c2)c(C)c1C(C)=O |  | inconclusive [inhibitor, single point]
CC(=O)OCC(=O)N1N=C(c2ccc3ccccc3c2)CC1c1ccccc1 (stereo not drawn) |  | inconclusive [inhibitor, single point]
COc1ccc(-c2nc3cnccn3c2Nc2ccc3c(c2)OCO3)cc1 |  | inactive
Cc1[nH]c2ccccc2c1CCNC(=O)c1ccc2c(c1[N+](=O)[O-])C(=O)c1ccccc1C2=O |  | inconclusive [inhibitor, partial curve, poor fit]
Cc1nc2cc(N3CCCCC3)c(NC(=O)c3ccncc3)cc2c(=O)n1Cc1ccc(Cl)cc1 |  | inconclusive [inhibitor, partial curve]
C/C(Cl)=C/CSc1nc2c(c(=O)[nH]c(=O)n2C)n1C(C)C |  | inconclusive [inhibitor, single point]
CCCC(=O)c1ccc(N2CCCC2)c(F)c1 |  | inconclusive [inhibitor, single point]
CCOc1cc(C(=O)OCC(=O)Nc2cccc(C)c2)ccc1OCC(=O)N1CCOCC1 |  | inactive
O=C(NCc1nnc(SCC(=O)N2CCOCC2)o1)c1c(F)cccc1Cl |  | inconclusive [inhibitor, single point]
